The source of these data is PMC4336329 (PLoS ONE, 2015).

The campaign covered roughly 310,000 compounds. About 14,000 (4.5%) showed an effect of 50% or more. The effect is printed as a negative number. This is one part of the list.
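Note: peak tail current of the secondary pulse compared with the same well before compound.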

For the assay, the target named is human ether-à-go-go-related gene (hERG) potassium channel (human, UniProt Q12809). The experiment in a line: primary screen, population patch clamp on CHO cells stably expressing hERG.
Sequence of human ether-à-go-go-related gene (hERG) potassium channel (Q12809 whole entry, looked up): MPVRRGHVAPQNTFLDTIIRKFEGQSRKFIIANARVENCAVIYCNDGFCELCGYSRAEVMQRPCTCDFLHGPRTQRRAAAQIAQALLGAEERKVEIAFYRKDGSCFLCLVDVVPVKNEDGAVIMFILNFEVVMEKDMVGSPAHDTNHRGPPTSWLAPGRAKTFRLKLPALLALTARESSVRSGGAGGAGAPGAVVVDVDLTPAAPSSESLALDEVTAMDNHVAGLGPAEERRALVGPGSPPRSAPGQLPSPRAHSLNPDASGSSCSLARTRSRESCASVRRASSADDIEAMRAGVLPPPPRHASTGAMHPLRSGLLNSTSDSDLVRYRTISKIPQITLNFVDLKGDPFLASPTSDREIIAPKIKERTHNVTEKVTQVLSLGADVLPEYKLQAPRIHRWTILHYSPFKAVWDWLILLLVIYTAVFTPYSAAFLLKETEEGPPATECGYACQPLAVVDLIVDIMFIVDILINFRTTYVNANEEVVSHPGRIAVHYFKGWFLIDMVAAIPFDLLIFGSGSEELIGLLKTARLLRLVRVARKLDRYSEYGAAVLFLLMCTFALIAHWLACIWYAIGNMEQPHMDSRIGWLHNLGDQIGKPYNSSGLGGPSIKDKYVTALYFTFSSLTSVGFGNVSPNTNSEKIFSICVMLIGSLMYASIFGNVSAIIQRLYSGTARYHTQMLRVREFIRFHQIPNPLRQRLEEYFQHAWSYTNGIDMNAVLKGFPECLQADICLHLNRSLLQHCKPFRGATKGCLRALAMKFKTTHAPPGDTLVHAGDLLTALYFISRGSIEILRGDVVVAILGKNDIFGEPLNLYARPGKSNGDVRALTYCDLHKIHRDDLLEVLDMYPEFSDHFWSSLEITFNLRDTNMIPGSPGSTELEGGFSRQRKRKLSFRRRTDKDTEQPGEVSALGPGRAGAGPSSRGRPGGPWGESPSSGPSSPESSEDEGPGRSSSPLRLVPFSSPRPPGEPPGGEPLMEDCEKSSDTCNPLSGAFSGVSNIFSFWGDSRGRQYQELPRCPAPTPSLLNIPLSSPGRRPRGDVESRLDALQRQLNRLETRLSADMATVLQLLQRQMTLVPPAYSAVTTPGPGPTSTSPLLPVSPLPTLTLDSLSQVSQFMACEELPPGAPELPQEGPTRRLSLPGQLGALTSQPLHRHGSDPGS
Consider `COc1cccc(C(=O)Nc2cnn(C(C)C)c2)c1`, for which the “hERG current change (%, negative = inhibition) at 10uM” value came out at 9.94%.

For the compound `O=c1c2ccccc2nnn1Cc1ccc(Br)cc1`, the “hERG current change (%, negative = inhibition) at 10uM” value turned out to be 8.66%.

As for `COc1ccc2[nH]c(C(=O)O)c(CCC(=O)O)c2c1`, the “hERG current change (%, negative = inhibition) at 10uM” value is recorded as 18.9%.

Turning to `CC(C)Cc1nc2ccccc2[nH]1`, the “hERG current change (%, negative = inhibition) at 10uM” value is on record as 9.74%.

As for `CCC(=O)Nc1cccc(NC(=O)c2ccc(C)cc2Cl)c1`, the “hERG current change (%, negative = inhibition) at 10uM” value turned out to be 34.5%.

For `C/C(N)=C(/C#N)C(=O)CSc1nc2ccc(C)cc2[nH]1`, the “hERG current change (%, negative = inhibition) at 10uM” value is reported as 10.1%.

For `CCCCn1c(N)c(N(CCOC)C(=O)COC(=O)CCOc2ccccc2)c(=O)[nH]c1=O`, the “hERG current change (%, negative = inhibition) at 10uM” value was 8.12%.

For the compound `CC1CCCCC1NC(=O)CN1CCN(Cc2ccccc2Cl)C1=O` (stereo not shown), the “hERG current change (%, negative = inhibition) at 10uM” value was determined as 4.48%.

For the compound `N#Cc1cc(-c2ccc(Cl)cc2)cnc1Sc1ccccc1`, the “hERG current change (%, negative = inhibition) at 10uM” value came out at 5.56%.

As to `Clc1ccc(C2[C@H]3CN(Cc4ccc(-c5ccccc5)cc4)[C@H](c4ccccc4)C34CC2(c2ccccc2)C4)cn1` (stereo partly shown), the “hERG current change (%, negative = inhibition) at 10uM” value was 0.196%.

As to `COc1cccc(/C=N/Nc2nnc(C)n2N)c1OCc1ccccc1Cl.Cl`, the “hERG current change (%, negative = inhibition) at 10uM” value came out at 6.41%.

In the case of `Cc1[nH]nc2nc3c(c(OC(=O)c4ccccc4)c12)c(=O)n(C)c(=O)n3C`, the “hERG current change (%, negative = inhibition) at 10uM” value was found to be 6.45%.

Take `CCOc1ccccc1NC(=O)/C(C#N)=C/c1cccnc1`: the “hERG current change (%, negative = inhibition) at 10uM” value is listed as 6.37%.

Turning to `Cc1cc(C)c(C(=O)COC(=O)[C@H](C)Nc2ccc(C(F)(F)F)cc2[N+](=O)[O-])c(C)c1`, the “hERG current change (%, negative = inhibition) at 10uM” value was found to be 13.1%.

`CC(=O)N1CC(=O)Nc2ccc(Br)cc2C1c1ccc(F)cc1` (stereo not shown): the “hERG current change (%, negative = inhibition) at 10uM” value is reported as -5.14%.

For the compound `O=C(O)CC1=C(Nc2ccccc2)C(=O)N(c2ccccc2)C1c1ccc(Br)cc1` (stereo not shown), the “hERG current change (%, negative = inhibition) at 10uM” value is 25.9%.

For `COc1ccc(OCCN2C(=O)c3cccc(N)c3C2=O)cc1`, the “hERG current change (%, negative = inhibition) at 10uM” value was determined as 11.8%.

Regarding `Cc1ccc(S(=O)(=O)Nc2ccc(Cl)cc2)cc1NC(=O)c1cc2c(s1)CCCC2`, the “hERG current change (%, negative = inhibition) at 10uM” value is reported as -6.16%.

As for `Cc1ccc(-n2c(CSc3nc(C)cc(C)n3)nnc2SCC(=O)Nc2nccs2)cc1`, the “hERG current change (%, negative = inhibition) at 10uM” value was determined as 9.01%.

As for `COc1ccc(OC)c(NC(=O)Nc2nnc(N3CCC(C)CC3)s2)c1`, the “hERG current change (%, negative = inhibition) at 10uM” value was determined as 5.07%.

As to `Cc1ccccc1NC(=S)NCc1ccc(Cl)cc1`, the “hERG current change (%, negative = inhibition) at 10uM” value turned out to be 0.313%.

Consider `COc1ccc(CCN2C(=O)C(O)=C(C(=O)c3ccco3)C2c2cccs2)cc1OC` (stereo not shown), for which the “hERG current change (%, negative = inhibition) at 10uM” value came out at 21.8%.

Regarding `O=c1[nH]nc(-c2ccc(F)cc2)cc1Cc1ccccn1`, the “hERG current change (%, negative = inhibition) at 10uM” value turned out to be 2.44%.

With `COc1ccc(N2CCN(C(=O)CN3C(=O)NC(C)(C4CC4)C3=O)CC2)cc1` (stereo not shown), the “hERG current change (%, negative = inhibition) at 10uM” value is on record as -0.997%.

As to `CN1CCC2(O)OCCCC2C1` (stereo not shown), the “hERG current change (%, negative = inhibition) at 10uM” value is on record as 25.9%.

Turning to `Cc1ccccc1OCCN(C#N)c1nc(N(C)C)nc(N(C)C)n1`, the “hERG current change (%, negative = inhibition) at 10uM” value is -7.31%.

With `CCN(CC)S(=O)(=O)c1cccc(NC(=O)c2cc3ccccc3o2)c1`, the “hERG current change (%, negative = inhibition) at 10uM” value is reported as -14.8%.

As for `COC(=O)C1=NN(C(=O)c2ccccc2)C(O)(c2ccc([N+](=O)[O-])cc2)C1` (stereo not shown), the “hERG current change (%, negative = inhibition) at 10uM” value is recorded as -20.2%.

As for `Cc1cc(C)nc(SCC(=O)O)n1`, the “hERG current change (%, negative = inhibition) at 10uM” value is reported as 17.7%.

Consider `O=C(O)/C=C/C(=O)Nc1ccc(-c2ccccc2)cc1`, for which the “hERG current change (%, negative = inhibition) at 10uM” value worked out at 2.01%.

In the case of `CNC(=O)C1CCN(S(=O)(=O)c2c(C)noc2/C=C/c2cccc(C)c2)CC1`, the “hERG current change (%, negative = inhibition) at 10uM” value is 10.2%.

On to `Cc1cc(C=C2C(=O)c3ccccc3C2=O)c(C)n1C`, for which the “hERG current change (%, negative = inhibition) at 10uM” value was 7.4%.

As for `Cc1ccc2oc(-c3cccc(NC(=O)c4cc(-n5cnnc5)ccc4Cl)c3)nc2c1`, the “hERG current change (%, negative = inhibition) at 10uM” value amounted to 10.7%.

On to `Br.NC1=NN=C(c2ccc3c(c2)OCCO3)CS1`, for which the “hERG current change (%, negative = inhibition) at 10uM” value amounted to 21.3%.

As for `COc1ccc(-n2cnc3cc(NS(=O)(=O)c4ccc(C)cc4)ccc32)cc1`, the “hERG current change (%, negative = inhibition) at 10uM” value is given as -22.2%.

In the case of `Cc1ccc(N/C=C/c2onc(C)c2[N+](=O)[O-])cc1`, the “hERG current change (%, negative = inhibition) at 10uM” value was determined as 4.09%.

As to `O=C(Cn1c(=O)c(C(F)(F)F)nc2ccccc21)N1CCC2(CC1)OCCO2`, the “hERG current change (%, negative = inhibition) at 10uM” value worked out at 1.18%.

As for `CCCOc1ccc(CSc2nnc(CCC)n2N)cc1`, the “hERG current change (%, negative = inhibition) at 10uM” value is 6.5%.

Turning to `Cn1c(C(=O)NCc2cccnc2)cc2sccc21`, the “hERG current change (%, negative = inhibition) at 10uM” value was -10.2%.

On to `CC(Oc1cccc(Cl)c1)C(=O)Nc1ccc(S(=O)(=O)Nc2ncccn2)cc1` (stereo not shown), for which the “hERG current change (%, negative = inhibition) at 10uM” value worked out at 9.35%.

Consider `CC(C)N1CCN(S(=O)(=O)c2ccc3ccccc3c2)CC1.O=C(O)C(=O)O`, for which the “hERG current change (%, negative = inhibition) at 10uM” value stood at 21.4%.

As to `Cn1cc(C(=O)NCCN2CCN(c3cccc(Cl)c3)CC2)c2c3ccccc3n(C)c2c1=O`, the “hERG current change (%, negative = inhibition) at 10uM” value is recorded as -19.2%.

As for `CCc1ccc(C(=O)COC(=O)c2ccc(Cl)nc2)cc1`, the “hERG current change (%, negative = inhibition) at 10uM” value is 14%.
